# Experimental data from the supplement of paper PMC8728848.
# This is one part of the list.
# B1: Siglec-E (Mus musculus), Q91Y57 (protein)
# chain: MLLLLLLLLLWGIKGVEGQNPQEVFTLNVERKVVVQEGLCVLVPCNFSYLKKRLTDWTDSDPVHGFWYREGTDRRKDSIVATNNPIRKAVKETRNRFFLLGDPWRNDCSLNIREIRKKDAGLYFFRLERGKTKYNYMWDKMTLVVTALTNTPQILLPETLEAGHPSNLTCSVPWDCGWTAPPIFSWTGTSVSFLSTNTTGSSVLTITPQPQDHGTNLTCQVTLPGTNVSTRMTTRLNVSYAPKNLTVTIYQGADSVSTILKNGSSLPISEGQSLRLICSTDSYPPANLSWSWDNLTLCPSKLSKPGLLELFPVHLKHGGVYTCQAQHALGSQHISLSLSPQSSATLSEMMMGTFVGSGVTALLFLSVCILLLAVRSYRRKPARPAVVAPHPDALKVSVSQNPLVESQADDSSEPLPSILEAAPSSTEEEIHYATLSFHEMKPMNLWGQQDTTTEYSEIKFPQRTAWP
# How the values were obtained:
# Assay in all cases: glycan array binding signal (z-score within array); higher = stronger binding
# Conditions in all cases: glycan notation: IUPAC condensed, linker removed
# [1] = target: Fuc(a1-2)Gal
# Procedure, shortened: (§1)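 Glycan array data came from 3228 arrays in the Consortium for Functional Glycomics database, and only arrays with an available protein sequence were kept. Glycan names were put into IUPAC-condensed notation, and columns mapping to the same glycan were averaged. The binding signal is a within-array Z-score, averaged across arrays of one protein sequence run at different concentrations or buffers and across linkers. A negative Z-score can be read as non-binding.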
# [2] = target: Fuc(a1-2)Gal(b1-3)GalNAc
# Procedure, shortened: as §1
# [3] = target: Fuc(a1-2)Gal(b1-3)GalNAc(a1-3)[Fuc(a1-2)]Gal(b1-4)Glc
# Procedure, shortened: as §1
# [4] = target: Fuc(a1-2)Gal(b1-3)GalNAc(a1-3)[Fuc(a1-2)]Gal(b1-4)GlcNAc
# Procedure, shortened: as §1
# [5] = target: Fuc(a1-2)Gal(b1-3)GalNAc(b1-3)Gal
# Procedure, shortened: as §1
# [6] = target: Fuc(a1-2)Gal(b1-3)GalNAc(b1-3)Gal(a1-4)Gal(b1-4)Glc
# Procedure, shortened: as §1
# [7] = target: Fuc(a1-2)Gal(b1-3)GalNAc(b1-4)[Neu5Ac(a2-3)]Gal(b1-4)Glc
# Procedure, shortened: as §1
# [8] = target: Fuc(a1-2)Gal(b1-3)GlcNAc
# Procedure, shortened: as §1
# [9] = target: Fuc(a1-2)Gal(b1-3)GlcNAc(b1-2)Man(a1-3)[Fuc(a1-2)Gal(b1-3)GlcNAc(b1-2)Man(a1-6)]Man(b1-4)GlcNAc(b1-4)GlcNAc
# Procedure, shortened: as §1
# [10] = target: Fuc(a1-2)Gal(b1-3)GlcNAc(b1-2)Man(a1-3)[Fuc(a1-2)Gal(b1-3)GlcNAc(b1-2)Man(a1-6)]Man(b1-4)GlcNAc(b1-4)[Fuc(a1-6)]GlcNAc
# Procedure, shortened: as §1
# [11] = target: Fuc(a1-2)Gal(b1-3)GlcNAc(b1-3)Gal(b1-4)Glc
# Procedure, shortened: as §1
# [12] = target: Fuc(a1-2)Gal(b1-3)GlcNAc(b1-3)GalNAc
# Procedure, shortened: as §1
# [13] = target: Fuc(a1-2)Gal(b1-3)GlcNAc(b1-3)[Fuc(a1-2)Gal(b1-3)GlcNAc(b1-6)]GalNAc
# Procedure, shortened: as §1
# [14] = target: Fuc(a1-2)Gal(b1-3)GlcNAc(b1-3)[Gal(b1-4)GlcNAc(b1-6)]Gal(b1-4)Glc
# Procedure, shortened: as §1
# [15] = target: Fuc(a1-2)Gal(b1-3)GlcNAc(b1-3)[Neu5Ac(a2-6)Gal(b1-4)GlcNAc(b1-6)]Gal(b1-4)Glc
# Procedure, shortened: as §1
# [16] = target: Fuc(a1-2)Gal(b1-3)GlcNAc6S
# Procedure, shortened: as §1
# [17] = target: Fuc(a1-2)Gal(b1-3)[Fuc(a1-4)]GlcNAc
# Procedure, shortened: as §1
# [18] = target: Fuc(a1-2)Gal(b1-3)[Fuc(a1-4)]GlcNAc(b1-2)Man(a1-3)[Fuc(a1-2)Gal(b1-3)[Fuc(a1-4)]GlcNAc(b1-2)Man(a1-3)]Man(b1-4)GlcNAc(b1-4)GlcNAc
# Procedure, shortened: as §1
# [19] = target: Fuc(a1-2)Gal(b1-3)[Fuc(a1-4)]GlcNAc(b1-2)Man(a1-3)[Fuc(a1-2)Gal(b1-3)[Fuc(a1-4)]GlcNAc(b1-2)Man(a1-6)]Man(b1-4)GlcNAc(b1-4)[Fuc(a1-6)]GlcNAc(b1-4)[Fuc(a1-6)]GlcNAc
# Procedure, shortened: as §1
# [20] = target: Fuc(a1-2)Gal(b1-3)[Fuc(a1-4)]GlcNAc(b1-3)[Fuc(a1-3)[Gal(b1-4)]GlcNAc(b1-6)]Gal(b1-4)Glc
# Procedure, shortened: as §1
# [21] = target: Fuc(a1-2)Gal(b1-3)[Fuc(a1-4)]GlcNAc(b1-3)[Gal(b1-4)GlcNAc(b1-6)]Gal(b1-4)Glc
# Procedure, shortened: as §1
# [22] = target: Fuc(a1-2)Gal(b1-4)Fuc(a1-3)]GlcNAc(b1-2)Man(a1-3)[Fuc(a1-2)Gal(b1-4)[Fuc(a1-3)]GlcNAc(b1-2)Man(a1-6)]Man(b1-4)GlcNAc(b1-4)GlcNAc
# Procedure, shortened: as §1
# [23] = target: Fuc(a1-2)Gal(b1-4)Glc
# Procedure, shortened: as §1
# [24] = target: Fuc(a1-2)Gal(b1-4)Glc6S
# Procedure, shortened: as §1
# [25] = target: Fuc(a1-2)Gal(b1-4)GlcNAc
# Procedure, shortened: as §1
# [26] = target: Fuc(a1-2)Gal(b1-4)GlcNAc(b1-2)Man
# Procedure, shortened: as §1
# [27] = target: Fuc(a1-2)Gal(b1-4)GlcNAc(b1-2)Man(a1-3)[Fuc(a1-2)Gal(b1-4)GlcNAc(b1-2)Man(a1-6)]Man(b1-4)GlcNAc(b1-4)GlcNAc
# Procedure, shortened: as §1
# [28] = target: Fuc(a1-2)Gal(b1-4)GlcNAc(b1-2)Man(a1-3)[Fuc(a1-2)Gal(b1-4)GlcNAc(b1-2)Man(a1-6)]Man(b1-4)GlcNAc(b1-4)[Fuc(a1-6)]GlcNAc
# Procedure, shortened: as §1
# [29] = target: Fuc(a1-2)Gal(b1-4)GlcNAc(b1-2)[Fuc(a1-2)Gal(b1-4)GlcNAc(b1-4)]Man(a1-3)[Fuc(a1-2)Gal(b1-4)GlcNAc(b1-2)Man(a1-6)]Man(b1-4)GlcNAc(b1-4)GlcNAc
# Procedure, shortened: as §1
# [30] = target: Fuc(a1-2)Gal(b1-4)GlcNAc(b1-3)Gal(b1-4)GlcNAc
# Procedure, shortened: as §1
binder,measurement,setting,value
B1,glycan array binding signal (z-score),[1],-0.259
same,glycan array binding signal (z-score),[2],-0.425
same,glycan array binding signal (z-score),[3],-0.209
same,glycan array binding signal (z-score),[4],-0.375
same,glycan array binding signal (z-score),[5],-0.294
same,glycan array binding signal (z-score),[6],-0.274
same,glycan array binding signal (z-score),[7],-0.497
same,glycan array binding signal (z-score),[8],-0.452
same,glycan array binding signal (z-score),[9],0.618
same,glycan array binding signal (z-score),[10],1.9
same,glycan array binding signal (z-score),[11],-0.32
same,glycan array binding signal (z-score),[12],-0.351
same,glycan array binding signal (z-score),[13],-0.394
same,glycan array binding signal (z-score),[14],0.793
same,glycan array binding signal (z-score),[15],-0.339
same,glycan array binding signal (z-score),[16],-0.285
same,glycan array binding signal (z-score),[17],-0.374
same,glycan array binding signal (z-score),[18],3.48
same,glycan array binding signal (z-score),[19],0.284
same,glycan array binding signal (z-score),[20],-0.582
same,glycan array binding signal (z-score),[21],-0.355
same,glycan array binding signal (z-score),[22],2.78
same,glycan array binding signal (z-score),[23],-0.323
same,glycan array binding signal (z-score),[24],-0.321
same,glycan array binding signal (z-score),[25],-0.46
same,glycan array binding signal (z-score),[26],0.321
same,glycan array binding signal (z-score),[27],-0.228
same,glycan array binding signal (z-score),[28],3.46
same,glycan array binding signal (z-score),[29],-0.134
same,glycan array binding signal (z-score),[30],-0.336
